Patent publication US11807625B2, “Capsid inhibitors for the prevention of HIV” (Gilead Sciences, Inc., priority 2019, dated 2023)
Where “and” joins values, the source holds several entries; their conditions need not be identical. Equal values may be shown once. The source gives many values for each of these; only a part stands here.

Test: PK of compound of Formula (Ia) after single intramuscular dose of solution formulations in Wistar Han rats
Format: in vivo
Conditions: IM 100 mg/kg
Experimental: Formulations containing the compound of Formula (Ia), or a pharmaceutically acceptable salt thereof, were prepared as solutions and optionally administered subcutaneously or intramuscularly to rats, rabbits, and/or dogs.
A solution of about 400 mg/ml of the compound of Formula (Ia) having 21.13 w/w % water, 45.25 w/w % PEG 300, and 33.61 w/w % of a sodium salt of a compound of Formula (Ia) was prepared. The solution was administered intramuscularly to Wistar Han rats at a dose of about 100 mg/kg and beagle dogs at a dose of about 30 mg/kg.
A solution of about 400 mg/ml of the compound of Formula (Ia) having 19.18 w/w % water, 41.09 w/w % PEG 300, 33.61 w/w % of a sodium salt of a compound of Formula (Ia), and 6.12 w/w % poloxamer 188 was prepared. The solution was administered intramuscularly to Wistar Han rats at a dose of about 100 mg/kg and beagle dogs at a dose of about 30 mg/kg.
(§1) A solution of about 500 mg/ml of the compound of Formula (Ia) having 16.93 w/w % water, 36.22 w/w % PEG 300, 41.85 w/w % of a sodium salt of a compound of Formula (Ia), and 5.00% ethanol was prepared. The solution was administered intramuscularly to Wistar Han rats at a dose of about 100 mg/kg and beagle dogs at a dose of about 30 mg/kg.
as §1, with “14.50” for “16.93”, “31.04” for “36.22”, “(Ia), 5.00% ethanol,” for “(Ia),”, “7.61 w/w % poloxamer 188” for “5.00% ethanol”

Plasma concentration (1.00 h, individual rats, solution M, 500 mg/mL): 166 nM and 159 nM and 233 nM
Plasma concentration (3.00 h, individual rats, solution M, 500 mg/mL): 432 nM and 353 nM and 530 nM
Plasma concentration (8.00 h, individual rats, solution M, 500 mg/mL): 563 nM and 478 nM and 692 nM
Plasma concentration (24.0 h, individual rats, solution M, 500 mg/mL): 824 nM and 573 nM and 865 nM
Plasma concentration (48.0 h, individual rats, solution M, 500 mg/mL): 599 nM and 575 nM and 689 nM
Plasma concentration (72.0 h, individual rats, solution M, 500 mg/mL): 179 nM and 519 nM and 480 nM and 527 nM
Plasma concentration (96.0 h, individual rats, solution M, 500 mg/mL): 485 nM and 464 nM and 561 nM
Plasma concentration (168 h, individual rats, solution M, 500 mg/mL): 433 nM and 626 nM and 676 nM
Plasma concentration (Solution H (~400 mg/mL), Wistar Han rats, individual animals #1-#4, 1.00 h): 104 nM and 205 nM and 76.2 nM and 213 nM
Plasma concentration (Solution H (~400 mg/mL), Wistar Han rats, individual animals #1-#4, 3.00 h): 314 nM and 168 nM and 320 nM
Plasma concentration (Solution H (~400 mg/mL), Wistar Han rats, individual animals #1-#4, 8.00 h): 216 nM and 380 nM (2×) and 164 nM
Plasma concentration (Solution H (~400 mg/mL), Wistar Han rats, individual animals #1-#4, 24.0 h): 340 nM and 473 nM and 265 nM and 677 nM
Plasma concentration (Solution H (~400 mg/mL), Wistar Han rats, individual animals #1-#4, 48.0 h): 586 nM and 346 nM and 596 nM
Plasma concentration (Solution H (~400 mg/mL), Wistar Han rats, individual animals #1-#4, 72.0 h): 343 nM and 400 nM and 281 nM and 564 nM
Plasma concentration (Solution H (~400 mg/mL), Wistar Han rats, individual animals #1-#4, 96.0 h): 415 nM and 534 nM and 305 nM and 655 nM
Plasma concentration (Solution H (~400 mg/mL), Wistar Han rats, individual animals #1-#4, 168 h): 599 nM and 547 nM and 314 nM and 892 nM
Plasma concentration (Solution J (~400 mg/mL, poloxamer 188), Wistar Han rats, individual animals #1-#4, 1.00 h): 230 nM and 199 nM and 149 nM and 418 nM
Plasma concentration (Solution J (~400 mg/mL, poloxamer 188), Wistar Han rats, individual animals #1-#4, 3.00 h): 450 nM and 312 nM and 554 nM
Plasma concentration (Solution J (~400 mg/mL, poloxamer 188), Wistar Han rats, individual animals #1-#4, 8.00 h): 539 nM and 426 nM and 555 nM
Plasma concentration (Solution J (~400 mg/mL, poloxamer 188), Wistar Han rats, individual animals #1-#4, 24.0 h): 514 nM and 475 nM and 669 nM
Plasma concentration (Solution J (~400 mg/mL, poloxamer 188), Wistar Han rats, individual animals #1-#4, 48.0 h): 421 nM and 535 nM and 558 nM
Plasma concentration (Solution J (~400 mg/mL, poloxamer 188), Wistar Han rats, individual animals #1-#4, 72.0 h): 380 nM and 458 nM and 442 nM
Plasma concentration (Solution J (~400 mg/mL, poloxamer 188), Wistar Han rats, individual animals #1-#4, 96.0 h): 398 nM and 474 nM and 466 nM
Plasma concentration (Solution J (~400 mg/mL, poloxamer 188), Wistar Han rats, individual animals #1-#4, 168 h): 526 nM and 409 nM and 450 nM
Plasma concentration (Solution K (~500 mg/mL, ethanol), Wistar Han rats, individual animals #1-#4, 1.00 h): 214 nM and 61.9 nM and 173 nM and 135 nM
Plasma concentration (Solution K (~500 mg/mL, ethanol), Wistar Han rats, individual animals #1-#4, 3.00 h): 261 nM and 127 nM and 207 nM and 240 nM
Plasma concentration (Solution K (~500 mg/mL, ethanol), Wistar Han rats, individual animals #1-#4, 8.00 h): 297 nM and 126 nM and 231 nM and 219 nM
Plasma concentration (Solution K (~500 mg/mL, ethanol), Wistar Han rats, individual animals #1-#4, 24.0 h): 245 nM and 416 nM and 345 nM
Plasma concentration (Solution K (~500 mg/mL, ethanol), Wistar Han rats, individual animals #1-#4, 48.0 h): 282 nM and 436 nM and 347 nM
Plasma concentration (Solution K (~500 mg/mL, ethanol), Wistar Han rats, individual animals #1-#4, 72.0 h): 403 nM and 495 nM and 319 nM
Plasma concentration (Solution K (~500 mg/mL, ethanol), Wistar Han rats, individual animals #1-#4, 96.0 h): 337 nM and 427 nM and 301 nM
Plasma concentration (Solution K (~500 mg/mL, ethanol), Wistar Han rats, individual animals #1-#4, 168 h): 422 nM and 609 nM and 359 nM
SMILES: CC(C)(C#Cc1ccc(-c2ccc(Cl)c3c(NS(C)(=O)=O)nn(CC(F)(F)F)c23)c([C@H](Cc2cc(F)cc(F)c2)NC(=O)Cn2nc(C(F)(F)F)c3c2C(F)(F)[C@@H]2C[C@H]32)n1)S(C)(=O)=O [compound of Formula (Ia)]
